The text below walks through data of paper PMC6919601, “Identification of Plasmodium dipeptidyl aminopeptidase allosteric inhibitors by high throughput screening” (PLoS ONE, 2019).

Structures are written as SMILES. Screen size: about 110,000 compounds; about 230 (0.21%) showed an effect of 50% or more. This is one part of the list.
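Note: 30 min substrate incubation versus DMSO and 10 µM JCP410 controls.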

The target in this assay is DPAP1 (Plasmodium falciparum, UniProt Q8IIJ9). The assay can be described thus: primary screen, percent inhibition; read by cleavage of a fluorogenic dipeptide substrate; higher = more effect of the substance. More on the design: species or system P. falciparum D10 trophozoite lysates; single well.
Sequence of DPAP1 (Q8IIJ9 whole entry, looked up): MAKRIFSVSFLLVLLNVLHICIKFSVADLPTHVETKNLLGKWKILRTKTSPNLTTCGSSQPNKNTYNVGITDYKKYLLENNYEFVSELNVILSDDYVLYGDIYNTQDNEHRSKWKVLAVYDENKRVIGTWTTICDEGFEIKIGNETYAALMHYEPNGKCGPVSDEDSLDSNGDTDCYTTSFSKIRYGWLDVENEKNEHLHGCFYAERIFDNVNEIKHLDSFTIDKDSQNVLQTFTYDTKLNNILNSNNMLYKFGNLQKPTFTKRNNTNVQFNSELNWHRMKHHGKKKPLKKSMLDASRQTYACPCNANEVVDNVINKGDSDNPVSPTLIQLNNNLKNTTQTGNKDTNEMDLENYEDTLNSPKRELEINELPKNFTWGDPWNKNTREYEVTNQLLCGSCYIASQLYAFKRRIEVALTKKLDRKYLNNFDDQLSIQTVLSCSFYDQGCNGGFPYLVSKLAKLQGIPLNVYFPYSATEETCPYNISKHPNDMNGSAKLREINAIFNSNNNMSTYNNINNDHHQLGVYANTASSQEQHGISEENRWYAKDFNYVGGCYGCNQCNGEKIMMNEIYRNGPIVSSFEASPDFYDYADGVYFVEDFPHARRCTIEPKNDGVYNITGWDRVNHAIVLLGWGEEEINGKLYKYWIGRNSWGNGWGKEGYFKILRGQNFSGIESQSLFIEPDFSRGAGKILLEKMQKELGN
Take `COc1ccc(C2C3=C(O)CCCC3=Nc3ncnn32)cc1Br` (stereo not shown): the “% Inhibition @ 10 uM” value is given as 1.73%.

Turning to `O=C(NC1CCCCC1)c1ccccc1NC(=O)C1CCCCC1C(=O)O` (stereo not shown), the “% Inhibition @ 10 uM” value was 0.795%.

Regarding `CC(C)CCn1c(CCCNC(=O)C(C)C)nc2ccccc21`, the “% Inhibition @ 10 uM” value was -0.551%.

Regarding `CN1CC=C2C(C#N)=C(N)C(C#N)(C#N)C(c3ccccc3C(F)(F)F)C2C1` (stereo not shown), the “% Inhibition @ 10 uM” value is 4.86%.

With `COc1ccc2nc(N3CC(C)OC(C)C3)cc(C)c2c1` (stereo not shown), the “% Inhibition @ 10 uM” value is reported as -5.39%.

As to `Cc1cc(/C=C2\NC(=O)N(Cc3ccc(Cl)cc3)C2=O)c(C)n1C`, the “% Inhibition @ 10 uM” value was found to be 0.487%.

On to `c1ccc(Cn2ncc3nc4ccccc4nc32)cc1`, for which the “% Inhibition @ 10 uM” value was -0.403%.

On to `Clc1nccc2c(Br)cccc12`, for which the “% Inhibition @ 10 uM” value is listed as -2.83%.

As to `CC(C)CC(NC(=O)Nc1cccnc1)C(=O)NCC#N` (stereo not shown), the “% Inhibition @ 10 uM” value is given as -9.15%.

As for `O=C(c1cccnc1)N1CCN(c2cccc(Cl)c2)CC1`, the “% Inhibition @ 10 uM” value was -1.5%.

In the case of `COc1ccccc1C1NC(=O)NC2=C1CCc1ccccc12` (stereo not shown), the “% Inhibition @ 10 uM” value came to 2.22%.

For `COc1ccc(-c2cc(=O)c3cc(Br)ccc3o2)cc1OC`, the “% Inhibition @ 10 uM” value is given as 3.17%.

`CCCn1cc(NC(=O)C2=CC(c3ccc(OC)cc3)=NS(=O)(=O)N2C)cn1`: the “% Inhibition @ 10 uM” value was 2.32%.

In the case of `Cc1ccc(N(CC(=O)Nc2ccccc2F)S(=O)(=O)c2ccccc2)c(C)c1`, the “% Inhibition @ 10 uM” value was -8.28%.

For `O=C(Nc1ccccc1C(=O)O)c1cc([N+](=O)[O-])ccc1Cl`, the “% Inhibition @ 10 uM” value came to 4.54%.

As to `N#C/C(=C(/O)c1ccc(Cl)cc1Cl)c1nc(O)c2ccccc2n1`, the “% Inhibition @ 10 uM” value was 17%.

As to `Cc1ccc(S(=O)(=O)Nc2ccc(-c3cn4cccc(C)c4n3)cc2)cc1`, the “% Inhibition @ 10 uM” value worked out at 0.755%.

In the case of `Cc1n[nH]c(C)c1N1C(=O)c2cccc3cccc(c23)C1=O`, the “% Inhibition @ 10 uM” value is -12.5%.

For `COc1cccc(CCNC2CC(=O)N(c3ccc(C)cc3)C2=O)c1` (stereo not shown), the “% Inhibition @ 10 uM” value is on record as -5.1%.

Regarding `CC(=O)N1CCN(CC(C)(C)NS(=O)(=O)c2ccccc2)CC1`, the “% Inhibition @ 10 uM” value is -5.16%.

In the case of `CC(=O)c1cccc(Nc2cc(C)nc3ncnn23)c1`, the “% Inhibition @ 10 uM” value was -7.08%.

For the compound `O=C(Nc1ccc(Cl)cn1)C1c2ccccc2C(=O)N(C2CCCC2)C1c1cccs1` (stereo not shown), the “% Inhibition @ 10 uM” value is recorded as -5.3%.

Turning to `N#Cc1c2ccccc2c2nc(-c3ccccc3)c3cc(Cl)ccc3n12`, the “% Inhibition @ 10 uM” value is given as -1.07%.

For the compound `COc1cccc(Nc2ccc3noc4c3c2C(=O)c2ccccc2-4)c1`, the “% Inhibition @ 10 uM” value is -1.15%.

Regarding `Cc1ccc(C(=O)O)cc1NC(=O)C1C2CCC(C2)C1C(=O)O` (stereo not shown), the “% Inhibition @ 10 uM” value is 5.44%.

Turning to `Cc1ccccc1OC(C)C(=O)Nc1cccnc1` (stereo not shown), the “% Inhibition @ 10 uM” value is -5.92%.

Regarding `CCC(C)Oc1ccccc1/C=C1/SC(=O)N(CC(=O)N2CCCCC2)C1=O` (stereo not shown), the “% Inhibition @ 10 uM” value is reported as -3.1%.

For the compound `CC1CCCCN1CCCNC(=O)C1CCCN(c2nnc(-n3cccc3)s2)C1` (stereo not shown), the “% Inhibition @ 10 uM” value turned out to be 2.76%.

For `CCc1c(C)c(C#N)c2nc3ccccc3n2c1N1CCN(C)CC1`, the “% Inhibition @ 10 uM” value was determined as 5.8%.

`Nc1c(-c2nc(-c3ccccc3)no2)nnn1-c1ccccc1C(F)(F)F`: the “% Inhibition @ 10 uM” value was -1.87%.

On to `CCc1ccc(N2CC(C(=O)Nc3cccc(C(F)(F)F)c3)CC2=O)cc1` (stereo not shown), for which the “% Inhibition @ 10 uM” value is 5.24%.

Take `COc1ccc(NC(=O)c2cc(Cl)ccc2N)cc1`: the “% Inhibition @ 10 uM” value is reported as 3.8%.

As for `Cc1ccc(-c2nc3n(n2)C(=O)CC(c2ccc4c(c2)OCO4)S3)cc1` (stereo not shown), the “% Inhibition @ 10 uM” value was -7.02%.

In the case of `O=C1c2ccccc2C(=O)N1CCCCON1C(=O)c2ccccc2C1=O`, the “% Inhibition @ 10 uM” value is -5.34%.

`CC(C)C[C@@H](C(=O)NCC#N)c1cccc(-c2cccc(OCCN(C)C)c2)c1`: the “% Inhibition @ 10 uM” value is -3.04%.

For `CCN(CC)S(=O)(=O)c1nnc(NC(=O)Cc2ccccc2)s1`, the “% Inhibition @ 10 uM” value came out at 1.68%.

With `COC(=O)C1C(=O)NCC1c1ccc(C)cc1` (stereo not shown), the “% Inhibition @ 10 uM” value is -0.546%.

For the compound `Cc1nn(C)c(C)c1C1C(C#N)=C(N)OC2=C1C(=O)CC(C)(C)C2` (stereo not shown), the “% Inhibition @ 10 uM” value stood at 1.03%.

As to `CS(=O)(=O)N(Cc1ccccc1Cl)c1ccc(C(=O)N2CCc3ccccc3C2)cc1`, the “% Inhibition @ 10 uM” value is given as -6.62%.

Take `O=C1c2ccccc2C(=O)N1CC1c2ccccc2CCN1S(=O)(=O)c1cccc2nsnc12` (stereo not shown): the “% Inhibition @ 10 uM” value is -4.96%.

Consider `Nc1ncc(Br)cc1S(=O)(=O)N1CCC(Cc2ccccc2)CC1`, for which the “% Inhibition @ 10 uM” value turned out to be 2.32%.

Turning to `O=C(NCC1CCCO1)c1ccc(N2C(=O)C3CCCCC3C2=O)cc1` (stereo not shown), the “% Inhibition @ 10 uM” value is on record as 1.21%.

As for `COc1ccc(N/C(=N/S(=O)(=O)c2ccccc2)C(Cl)(Cl)Cl)cc1`, the “% Inhibition @ 10 uM” value is -1.38%.

Turning to `CCN(CC)CCn1c(=O)c2nc[nH]c2n(C)c1=O`, the “% Inhibition @ 10 uM” value is given as -1.22%.

Take `CN(CC(=O)NCCC1=CCCCC1)S(=O)(=O)c1ccc(F)cc1`: the “% Inhibition @ 10 uM” value is given as 1.03%.

Consider `O=C(CSc1nc2c(c(=O)n1Cc1ccccc1)SCC2)NCc1ccc2c(c1)OCO2`, for which the “% Inhibition @ 10 uM” value amounted to 0.292%.

Take `COc1ccc2nc(C)c3c(c2c1)OC(C)C3` (stereo not shown): the “% Inhibition @ 10 uM” value was -4.32%.

With `CCOC(=O)C1CCCCN1CC(c1ccccc1)c1ccccc1` (stereo not shown), the “% Inhibition @ 10 uM” value was -2.34%.

Take `CN(C)CC1Cc2ccccc2O1` (stereo not shown): the “% Inhibition @ 10 uM” value is on record as 2.26%.
